This sample is rich in variants without activity.
B1: TPR 5TU (parent)
chain: GGAUCUUCUCGAUCUAACAAAAAAGACAAAUCUGCCACAAAGCUUGAGAGCAUCUUCGGAUGCAGAGGCGGCAGCCUUCGGUGGCGCGAUAGCGCCAACGUUCUCAACUAUGACACGCAAAACGCGUGCUCCGUUGAAUGGAGUUUAUCAUG

Variants of: B1
Assay: polymerase ribozyme fitness, log enrichment relative to wild type (log ratio); higher = more active; in vitro selection for triplet polymerase activity
Method in brief: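 After PCR construction and transcription, each subunit's mutant library from a heterodimeric triplet polymerase ribozyme was annealed with a biotinylated primer, the partner subunit and triplets. Incubation was frozen, at −7 °C, and extended constructs were gel-excised, bound to streptavidin beads and amplified by RT-PCR, in one selection round done in triplicate. Fitness is the logarithm of a genotype's enrichment divided by that of the wild type, from inverse-variance-weighted replicate averages of Illumina-sequenced inputs and outputs. The base of the logarithm is 2, and genotypes needed ≥10 input reads and ≥1 read per output.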

GGAUUUUGUCGAUCUAACAAACAAGACAAAUCUGCCACAAAGCUUGAGAGCAUCUUCGGAUGCAGAGGCGGCAGCCUUCGUUGGCACGAUAGCGCCUACGUUCUCGACUAUGACAUGCAAAACGCGUGCUCCGUUGAAUGCAGUUUAUCAUG [C5U C8G A22C G81U G86A A97U A106G C116U G141C] and GGAUUUUGUCGAUCUAACAAAAUAGACAAAUCUGCCACAAAGCUAGAGAGCAUCUUCGGAUGCAGAGGCGGCAGCCUUCGGUGCCGCGAUAGCGCCAACGUUCUCAACUAUGACACGCAAAACGCGUGCUCCGUUGAAUGGAGUUUAUCAUG [C5U C8G A23U U45A G84C] cannot be ordered by “polymerase ribozyme fitness (log ratio)” value: ≤ -4.2 for the first, ≤ -4.2 for the second.

GGAUUUUGUCGAUCUAACAAAAAAGACAAAUCUGCCACAAAGCUUGAGAGCAUCUUCGGAUGCAGAGGCGGCAGCCUUCGGUUGCGCGAUAGCGCCAACGUUCUCAACUAUGACACGCAAAAUGCGUGCUCCGUUGAAUGGAGUUUAUCAUG [C5U C8G G83U C123U] and GGAUUUUUUCGAUCUAACAAAACAGACAAAUCUGCCACAAAGCUUGAGAGCAUCUUCGGAUGCAGAGGCGGCAGCCUUCGGUGGUGCGAUAGCGCCAACGUUAUCAACUAUGACAUGCAAAACGCGUGCUCCGUUGAAUGGAGUUUAUCAUG [C5U C8U A23C C85U C103A C116U] cannot be ordered by “polymerase ribozyme fitness (log ratio)” value: ≤ -4.2 for the first, ≤ -4.2 for the second.

Going from GGAUUUUUUCGAUCUAACAAAAAAGACAAAUCUGCCACAAAGCUUGAGAGCAUCUUCAGAUGCAGAGGCGGCGGCCUUCGGUGGCGCGAUAGCGCCAACGUUCUCAACUAUGAUACGCAGAACGCGUGCUCCGUUGAAUGGAGUUUAUCAUG [C5U C8U G58A A73G C114U A120G] to GGAUUUUCUCGAUAUAACGAAAAAGACAUAUCUGCCACAAAGCUUGAGAGCAUCUUCGGAAGCAGAGGCGGCAGCCUUCGGUGGCGCCAUAGCGCCAACGUUCUCAACUAUGACACGCAAAACGCGUGCUCCGUUGAAUGGAGUUUAUCAUG [C5U C14A A19G A29U U61A G88C], the “polymerase ribozyme fitness (log ratio)” value falls from -3.02 to ≤ -4.2.

GGAUUUUCUCGAUGUAACAAAUAAGACAAAUCUGCCACAAAGCUUGAGAGCAUCUUCGGAUGCAGAGGCGGCAGCCUUCGGUGGCGCGAUAGCGCCAACGUUCUCAACUAUGACACGCAAGACGCGUGCUCCGUUGAAUGGAGUUUAACAUG [C5U C14G A22U A121G U148A] and GGAUUUUCUCGAUGUAACAAAAAAGCCAAAUCUGCCACAAAGCUUGAGAGCAUCUACGGAUGCAGAGGCCGCAGCCUCCGGUGGCGCGAUAGCGCCUACGUUCUCAACUAUGACACGCAAAACGCGUGCUCCGUUGAAUGUAGUUUAUCAUG [C5U C14G A26C U56A G70C U78C A97U G141U] cannot be ordered by “polymerase ribozyme fitness (log ratio)” value: ≤ -4.2 for the first, ≤ -4.2 for the second.

GGAUUUUCUCGAUCUAACAAAAAAGAUAAAUCUGCCACAAAGCUUGAGAGCAUCUUCGGAUACAGAGGUGGCAGCCUUCGGUGGGGCGAUAGCGGCAACGUUCUCAACUAUGACACGCAAAACGCGUGCUCCGUUGAAUGGAGUUUAUCAUG [C5U C27U G62A C69U C85G C95G] and GGAUUUUCUCGAUCUAACAAAAAAGACAAAUCUGCCAUAAAGCUUGAGAGCAUCUUCGGAUGAAGAGGCGGCAGCCAUCGGUGGCGCGAUAGCGUCAACGUUCUCAACUAUGACACGCAAAACGCGGGCUCCGUUUAAUGGAGCUUAUCAUG [C5U C38U C63A U77A C95U U127G G136U U144C] cannot be ordered by “polymerase ribozyme fitness (log ratio)” value: ≤ -4.2 for the first, ≤ -4.2 for the second.

Going from GGAUUUUCUCGAUCUAACAAAAAAGACAAAUCUGCCACAAAGCUUGAGAGCAUUUUCGGAUGCAGAGGCGGCAGCCUUCGGAGGCGCGAUAGCGGCAACGUUCUCAACUAUGACACGCAAAACGCGUGCUCCGUUGAAUGGAGUUUAUCUUG [C5U C54U U82A C95G A150U] to GGAUUUUCUCGAUCUAACAAAAAAGACAAAUCUGCCACAAAGCUUGAGAGCAUCUUCGGAUGCAGAGGCGGCAGCCUUCGGUGGCGAGAUCGCGCCCCCGUUCUCAACUAUGACACGCAAAACGCGUGCUCCGUUGAAUGGAGUUUAUCAUG [C5U C87A A91C A97C A98C], the “polymerase ribozyme fitness (log ratio)” value falls from -1.62 to ≤ -4.2.

GGAUUUUCUCGAUCUAACAAAAAAAACAAAUCUGCCUCAAAGCAUGAGAGCAACUUCGGAUGCAGAGGCGGCAGCCUUUGGUGGAGCGAUAGCACCAACGUUCUCAACUAUGACACGCAAAACGCGUGCUCCGGUGAAUGGAGUUUAUCAUA [C5U G25A A37U U44A U53A C79U C85A G94A U134G G152A] and GGAUUUUCUCGAUCUAACAAAAAAGACAAAUCUCCCACAAAGCUUGAGAGCAUCUUCGGAUGCAGAGACGGCAGCCUUCGGUAGCGCGAUAGCGCCAACGUUGUCAACUAUGACACGCAAAACGCGUGCUCCGUUGAAUGGAAUUUAUCAUG [C5U G34C G68A G83A C103G G143A] cannot be ordered by “polymerase ribozyme fitness (log ratio)” value: ≤ -4.2 for the first, ≤ -4.2 for the second.

GGAUUUUCUCGAUCUAACAAAAAAGACAAAUCUGCCACAAAGCUUGAGAGCAUCUUCGCAUGCAGAGGCGGCAGCCUUCGGUGGCGCGAUAGCGCCUACGGUCUCAACUAUGACACGCAAAACGCGUGCUCCGUUGAUUGGAGUUUAUCAUG [C5U G59C A97U U101G A138U] and GGAUUUUCUCGAUCUAACAAAAAAGACAAAUCUGCCACAAAGCUUGAGAGCAUCUUCGGAUGCAGAUGCGGCAGCUUUCCGUGGCGCGAUAGUGCCAACGUUGUCAACUAUGACACGCAAAACGCGUGCUCCGUUGAAUGGAGUUUAUCAUG [C5U G67U C76U G80C C93U C103G] cannot be ordered by “polymerase ribozyme fitness (log ratio)” value: ≤ -4.2 for the first, ≤ -4.2 for the second.

GGAUUUUCUCGAUCUAACAAAAAAGACAAAUCUGCCACAAAGCUUGAGAGCAUCUUCGGAUGCAGAGGCGGCAGCCUUCCGUGCCGCGAUAGCGCCAACGUUCUCAACUAUGAUACGCAAAACGCGUGCUCCGAUGAAAGGAGUUUAUCAUG [C5U G80C G84C C114U U134A U139A] and GGAUUUUCUCGAUCUAACAAAAAAGACAAAUCUGCCACAAAGCUUGAGAGCAUCUUCGGAUGCAGAGGCGGCAGCCUUCGGUUGCGCGAUAGCGCCAACGUUCUCAACUAUGACACGCAAAACGCGUGCUCCGUUGAUUGGUGUUUAUCAUG [C5U G83U A138U A142U] cannot be ordered by “polymerase ribozyme fitness (log ratio)” value: ≤ -4.2 for the first, ≤ -4.2 for the second.

With GGAUUUUCUCGAUCUAACAAAAAAGACAAAUCUGCCACAAAGCUUGAGAGCAUCUUCGGAUGCAGAGGCGGCAGCCUUCGGUGACGCGAUAGCGACAACGUUCUCAACUAUGACACGCAAAACGCGUGCUCCGUUGAAUGGAGUUUAUCAUG [C5U G84A C95A] the “polymerase ribozyme fitness (log ratio)” value was 0.351.

Source: the RNAGym collection of RNA variant scans (doi:10.1073/pnas.2313332121)
